# Data reported in publication PMC12820563, “FoxP3 forms a head-to-head dimer in vivo and stabilizes its multimerization on adjacent microsatellites”.
# The other results are listed elsewhere or left out.
# Target: T1, MBP-FoxP1dN (Mus musculus, UniProt P58462 326-579)
# T1 sequence: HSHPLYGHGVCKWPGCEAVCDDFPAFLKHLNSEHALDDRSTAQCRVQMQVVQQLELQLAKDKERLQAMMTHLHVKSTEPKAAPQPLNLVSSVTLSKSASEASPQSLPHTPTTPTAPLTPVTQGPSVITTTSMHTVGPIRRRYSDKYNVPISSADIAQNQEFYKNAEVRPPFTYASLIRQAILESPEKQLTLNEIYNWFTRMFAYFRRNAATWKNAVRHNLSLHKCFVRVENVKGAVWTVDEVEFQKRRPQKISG
# Experiment: PD-seq (MBP pull-down with sequencing); 20 mM Tris-HCl pH 7.5, 100 mM NaCl, 1.5 mM MgCl2, 0.4 uM protein, 0.1 uM dsDNA library, 30 min, room temperature, amylose pull-down; high values mean tight binding
# Conditions: protein: recombinant; tags: His6-MBP; chain copies: 2; dsDNA, one strand shown
# Summary of the method: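 In Tris pH 7.5 buffer with NaCl and MgCl2, 0.4 µM His6-MBP-tagged mouse FoxP3 or FoxP1 fragment lacking the N-terminus, from E. coli, met 0.1 µM Klenow-filled double-stranded degenerate DNA library for 30 min at room temperature. Three washes on amylose resin followed capture of the complexes, then proteinase K release of DNA, PCR barcoding and Illumina sequencing. Binding is taken as pooled-replicate reads-per-million enrichment of pull-down relative to input.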
row,Sequence,binding signal
1,GATGATTGTTCTCCCAGCTGATGAATTAGGTAATTCGAGTAAACAAATTTTCCTAATCTTTCTGTTCAAGCGCCATCTAC,1.06 RPM ratio (pull-down/input)
2,GATGATTGTTCTCCCAGCTGATGAATTCGTGGGGTCGAGTAAACAAATTTTCCTAATCTTTCTGTTCAAGCGCCATCTAC,0.729 RPM ratio (pull-down/input)
3,GATGATTGTTCTCCCAGCTGATGAATTAAAACCTTCGAGTAAACAAATTTTCCTAATCTTTCTGTTCAAGCGCCATCTAC,0.884 RPM ratio (pull-down/input)
4,GATGATTGTTCTCCCAGCTGATGAATTACATCTTTCGAGTAAACAAATTTTCCTAATCTTTCTGTTCAAGCGCCATCTAC,1.23 RPM ratio (pull-down/input)
5,GATGATTGTTCTCCCAGCTGATGAATTATCCTCATCGAGTAAACAAATTTTCCTAATCTTTCTGTTCAAGCGCCATCTAC,0.96 RPM ratio (pull-down/input)
6,GATGATTGTTCTCCCAGCTGATGAATTCATATACTCGAGTAAACAAATTTTCCTAATCTTTCTGTTCAAGCGCCATCTAC,1.07 RPM ratio (pull-down/input)
7,GATGATTGTTCTCCCAGCTGATGAATTCAGAACATCGAGTAAACAAATTTTCCTAATCTTTCTGTTCAAGCGCCATCTAC,0.998 RPM ratio (pull-down/input)
8,GATGATTGTTCTCCCAGCTGATGAATTCGGAAGGTCGAGTAAACAAATTTTCCTAATCTTTCTGTTCAAGCGCCATCTAC,0.817 RPM ratio (pull-down/input)
9,GATGATTGTTCTCCCAGCTGATGAATTGAGAGACTCGAGTAAACAAATTTTCCTAATCTTTCTGTTCAAGCGCCATCTAC,0.84 RPM ratio (pull-down/input)
10,GATGATTGTTCTCCCAGCTGATGAATTCATATCCTCGAGTAAACAAATTTTCCTAATCTTTCTGTTCAAGCGCCATCTAC,0.875 RPM ratio (pull-down/input)
11,GATGATTGTTCTCCCAGCTGATGAATTCCTTAGGTCGAGTAAACAAATTTTCCTAATCTTTCTGTTCAAGCGCCATCTAC,0.791 RPM ratio (pull-down/input)
12,GATGATTGTTCTCCCAGCTGATGAATTATCAAGCTCGAGTAAACAAATTTTCCTAATCTTTCTGTTCAAGCGCCATCTAC,0.893 RPM ratio (pull-down/input)
13,GATGATTGTTCTCCCAGCTGATGAATTCCATAGTTCGAGTAAACAAATTTTCCTAATCTTTCTGTTCAAGCGCCATCTAC,0.828 RPM ratio (pull-down/input)
14,GATGATTGTTCTCCCAGCTGATGAATTATGTGCGTCGAGTAAACAAATTTTCCTAATCTTTCTGTTCAAGCGCCATCTAC,1.27 RPM ratio (pull-down/input)
15,GATGATTGTTCTCCCAGCTGATGAATTGCTGTTTTCGAGTAAACAAATTTTCCTAATCTTTCTGTTCAAGCGCCATCTAC,2.45 RPM ratio (pull-down/input)
16,GATGATTGTTCTCCCAGCTGATGAATTTATGTGCTCGAGTAAACAAATTTTCCTAATCTTTCTGTTCAAGCGCCATCTAC,1.18 RPM ratio (pull-down/input)

row,Sequence,binding signal
1,GATGATTGTTCTCCCAGCTGATGAATTTGAATTGTCGAGTAAACAAATTTTCCTAATCTTTCTGTTCAAGCGCCATCTAC,0.982 RPM ratio (pull-down/input)
2,GATGATTGTTCTCCCAGCTGATGAATTAGATCTTTCGAGTAAACAAATTTTCCTAATCTTTCTGTTCAAGCGCCATCTAC,0.854 RPM ratio (pull-down/input)
3,GATGATTGTTCTCCCAGCTGATGAATTCTCTGGATCGAGTAAACAAATTTTCCTAATCTTTCTGTTCAAGCGCCATCTAC,0.742 RPM ratio (pull-down/input)
4,GATGATTGTTCTCCCAGCTGATGAATTCAAAACTTCGAGTAAACAAATTTTCCTAATCTTTCTGTTCAAGCGCCATCTAC,0.933 RPM ratio (pull-down/input)
5,GATGATTGTTCTCCCAGCTGATGAATTGGGTTCGTCGAGTAAACAAATTTTCCTAATCTTTCTGTTCAAGCGCCATCTAC,0.845 RPM ratio (pull-down/input)
6,GATGATTGTTCTCCCAGCTGATGAATTGCATGAGTCGAGTAAACAAATTTTCCTAATCTTTCTGTTCAAGCGCCATCTAC,0.973 RPM ratio (pull-down/input)
7,GATGATTGTTCTCCCAGCTGATGAATTTGTAGCATCGAGTAAACAAATTTTCCTAATCTTTCTGTTCAAGCGCCATCTAC,1.37 RPM ratio (pull-down/input)
8,GATGATTGTTCTCCCAGCTGATGAATTGCCAGTGTCGAGTAAACAAATTTTCCTAATCTTTCTGTTCAAGCGCCATCTAC,0.843 RPM ratio (pull-down/input)
9,GATGATTGTTCTCCCAGCTGATGAATTTCAACGTTCGAGTAAACAAATTTTCCTAATCTTTCTGTTCAAGCGCCATCTAC,0.856 RPM ratio (pull-down/input)
10,GATGATTGTTCTCCCAGCTGATGAATTACCACAGTCGAGTAAACAAATTTTCCTAATCTTTCTGTTCAAGCGCCATCTAC,0.985 RPM ratio (pull-down/input)
11,GATGATTGTTCTCCCAGCTGATGAATTTACCAAGTCGAGTAAACAAATTTTCCTAATCTTTCTGTTCAAGCGCCATCTAC,1.16 RPM ratio (pull-down/input)
12,GATGATTGTTCTCCCAGCTGATGAATTCCTGAAGTCGAGTAAACAAATTTTCCTAATCTTTCTGTTCAAGCGCCATCTAC,0.808 RPM ratio (pull-down/input)
13,GATGATTGTTCTCCCAGCTGATGAATTCCATCAGTCGAGTAAACAAATTTTCCTAATCTTTCTGTTCAAGCGCCATCTAC,0.814 RPM ratio (pull-down/input)
14,GATGATTGTTCTCCCAGCTGATGAATTGCCATGGTCGAGTAAACAAATTTTCCTAATCTTTCTGTTCAAGCGCCATCTAC,0.932 RPM ratio (pull-down/input)
15,GATGATTGTTCTCCCAGCTGATGAATTCCCATTCTCGAGTAAACAAATTTTCCTAATCTTTCTGTTCAAGCGCCATCTAC,0.789 RPM ratio (pull-down/input)
16,GATGATTGTTCTCCCAGCTGATGAATTTCGGAAGTCGAGTAAACAAATTTTCCTAATCTTTCTGTTCAAGCGCCATCTAC,0.772 RPM ratio (pull-down/input)
